# Assay results from the supplement of paper PMC12217912.
# This is one part of the list. The full chains were built here from the parent and the listed change. Values near 0.05 are background.
# B1: TEV protease; numbered along this chain (parent)
# chain: MGESLFKGPRDYNPISSSICHLTNESDGHTTSLYGIGFGPFIITNKHLFRRNNGTLVVQSLHGVFKVKDTTTLQQHLVDGRDMIIIRMPKDFPPFPQKLKFREPQREERICLVTTNFQTKSMSSMVSDTSCTFPSGDGIFWKHWIQTKDGQCGSPLVSTRDGFIVGIHSASNFTNTNNYFTSVPKNFMELLTNQEAQQWVSGWRLNADSVLWGGHKVFMVKPEEPFQPVKEATQL
# Variants of: B1
# Experiment: raw area under fraction-flipped curve 0-4 h after induction (AUC4h, not background-subtracted), DNA-recorder readout of cleavage of the substrate (dimensionless); higher = more cleavage of the substrate by the protease variant
# Conditions: temperature: 34 °C; time window: 0-4 h after rhamnose induction
# Procedure: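 In vivo DNA recorder in E. coli TOP10(DE3) ΔrhaA at 34 °C. Each TEVp single-site mutant (parent TEVp 0) is paired with a single-site variant of the 7-mer TEVs (canonical ENLYFQ|S). The substrate sits between flexible linkers in a Bxb1-sfGFP-TEVs-SsrA fusion, so cleavage stabilises Bxb1 and speeds flipping of a recombination array, read by NGS. The value is the raw area under the fraction-flipped curve over 0-4 h after rhamnose induction (AUC4h), with ≥20 reads per time point. It is not background-subtracted; inactive controls average about 0.047.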
# 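Further: Bxb1 expression induced with 0.2% (w/v) L-rhamnose at OD600 near 0.5, cultures sampled hourly, flipped fraction per protease–substrate barcode pair counted by paired-end Illumina sequencing.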
Variant,area with substrate ENLYAQS,area with substrate ENLYCQS,area with substrate ENLYDQS,area with substrate ENLYEQS,area with substrate ENLYGQS,area with substrate ENLYHQS,area with substrate ENLYKQS,area with substrate ENLYMQS,area with substrate ENLYNQS,area with substrate ENLYPQS,area with substrate ENLYQQS,area with substrate ENLYRQS,area with substrate ENLYSQS,area with substrate ENLYVQS,area with substrate ENLYYQS,area with substrate ENLYTQS,area with substrate ENLYIQS,area with substrate ENLYLQS,area with substrate ENLYWQS
MGESLFKGPRDYNPISSSICHLTNESDGHTTSLYGIGFGPFIITNKHLFRRNNGTLVVQSLHQVFKVKDTTTLQQHLVDGRDMIIIRMPKDFPPFPQKLKFREPQREERICLVTTNFQTKSMSSMVSDTSCTFPSGDGIFWKHWIQTKDGQCGSPLVSTRDGFIVGIHSASNFTNTNNYFTSVPKNFMELLTNQEAQQWVSGWRLNADSVLWGGHKVFMVKPEEPFQPVKEATQL [G63Q],0.0702,0.0781,0.0483,0.0552,0.07,0.0639,0.0591,0.0802,0.0512,0.0672,0.0618,0.0508,0.0747,0.109,0.065,–,–,–,–
MGESLFKGPRDYNPISSSICHLTNESDGHTTSLYGIGFGPFIITNKHLFRRNNGTLVVQSLHGVFKVKWTTTLQQHLVDGRDMIIIRMPKDFPPFPQKLKFREPQREERICLVTTNFQTKSMSSMVSDTSCTFPSGDGIFWKHWIQTKDGQCGSPLVSTRDGFIVGIHSASNFTNTNNYFTSVPKNFMELLTNQEAQQWVSGWRLNADSVLWGGHKVFMVKPEEPFQPVKEATQL [D69W],0.0758,–,–,0.0702,0.0416,0.0627,0.0672,0.0661,0.0531,–,0.0797,0.0364,0.07,0.145,–,0.0725,–,–,–
MGESLFKGPRDYNPISSSICHLTNESDGHTTSLYGIGFGPFIITNKHLFRRNNGTLVVQSLHGVFKVKLTTTLQQHLVDGRDMIIIRMPKDFPPFPQKLKFREPQREERICLVTTNFQTKSMSSMVSDTSCTFPSGDGIFWKHWIQTKDGQCGSPLVSTRDGFIVGIHSASNFTNTNNYFTSVPKNFMELLTNQEAQQWVSGWRLNADSVLWGGHKVFMVKPEEPFQPVKEATQL [D69L],0.0595,–,0.0693,0.0474,0.0838,0.0616,0.0819,0.0666,0.0568,0.0732,0.0558,0.0598,0.0633,0.0816,–,0.0645,0.0696,0.0669,0.0679
MGESLFKGPRDYNPISSSICHLTNESDGHTTSLYGIGFGPFIITNKHLFRRNNGTLVVQSLHGVFKTKDTTTLQQHLVDGRDMIIIRMPKDFPPFPQKLKFREPQREERICLVTTNFQTKSMSSMVSDTSCTFPSGDGIFWKHWIQTKDGQCGSPLVSTRDGFIVGIHSASNFTNTNNYFTSVPKNFMELLTNQEAQQWVSGWRLNADSVLWGGHKVFMVKPEEPFQPVKEATQL [V67T],0.0637,0.0921,0.0701,0.0645,0.0752,0.0648,0.0507,–,0.0666,–,0.0878,–,0.051,0.102,0.061,0.0679,0.0957,–,–
MGESLFKGPRDYNPISSSICHLTNESDGHTTSLYGIGFGPFIITNKHLFRRNNGTLVVQSLHGVFKLKDTTTLQQHLVDGRDMIIIRMPKDFPPFPQKLKFREPQREERICLVTTNFQTKSMSSMVSDTSCTFPSGDGIFWKHWIQTKDGQCGSPLVSTRDGFIVGIHSASNFTNTNNYFTSVPKNFMELLTNQEAQQWVSGWRLNADSVLWGGHKVFMVKPEEPFQPVKEATQL [V67L],0.0802,0.0795,0.0612,0.0614,–,0.0712,0.0501,0.0828,0.0705,–,0.0458,–,–,0.107,0.061,0.0813,–,0.0811,0.0763
MGESLFKGPRDYNPISSSICHLTNESDGHTTSLYGIGFGPFIITNKHLFRRNNGTLVVQSLHGVFKVKDTTTLQQHSVDGRDMIIIRMPKDFPPFPQKLKFREPQREERICLVTTNFQTKSMSSMVSDTSCTFPSGDGIFWKHWIQTKDGQCGSPLVSTRDGFIVGIHSASNFTNTNNYFTSVPKNFMELLTNQEAQQWVSGWRLNADSVLWGGHKVFMVKPEEPFQPVKEATQL [L77S],0.0735,–,0.0635,0.0654,0.0602,0.0619,0.0612,0.0724,0.0614,0.0598,–,0.06,0.0619,0.0737,0.059,0.058,0.0778,0.0581,0.0613
MGESLFKGPRDYNPISSSICHLTNESDGHTTSLYGIGFGPFIITNKHLFRRNNGTLGVQSLHGVFKVKDTTTLQQHLVDGRDMIIIRMPKDFPPFPQKLKFREPQREERICLVTTNFQTKSMSSMVSDTSCTFPSGDGIFWKHWIQTKDGQCGSPLVSTRDGFIVGIHSASNFTNTNNYFTSVPKNFMELLTNQEAQQWVSGWRLNADSVLWGGHKVFMVKPEEPFQPVKEATQL [V57G],0.0827,–,–,0.0534,0.0621,0.0565,0.0634,0.0973,0.0652,–,–,–,0.0689,0.105,0.0608,–,–,–,–
MGESLFKGPRDYNPISSSICHLTNESDGHTTSLYGIGFGPFIITNKHLFRRNNGTLLVQSLHGVFKVKDTTTLQQHLVDGRDMIIIRMPKDFPPFPQKLKFREPQREERICLVTTNFQTKSMSSMVSDTSCTFPSGDGIFWKHWIQTKDGQCGSPLVSTRDGFIVGIHSASNFTNTNNYFTSVPKNFMELLTNQEAQQWVSGWRLNADSVLWGGHKVFMVKPEEPFQPVKEATQL [V57L],0.105,0.0935,–,0.0456,–,0.0621,–,–,0.072,0.0817,–,0.0791,0.0758,–,0.0674,–,0.123,–,0.0608
MGESLFKGPRDYNPISSSICHLTNESDGHTTSLYGIGFGPFIITNKHLFRRNNGTLWVQSLHGVFKVKDTTTLQQHLVDGRDMIIIRMPKDFPPFPQKLKFREPQREERICLVTTNFQTKSMSSMVSDTSCTFPSGDGIFWKHWIQTKDGQCGSPLVSTRDGFIVGIHSASNFTNTNNYFTSVPKNFMELLTNQEAQQWVSGWRLNADSVLWGGHKVFMVKPEEPFQPVKEATQL [V57W],0.0728,0.0627,0.066,0.0653,0.0609,0.0648,0.0636,0.0526,0.0686,0.0767,0.0666,0.0628,0.0726,–,0.0655,–,0.105,–,0.0805
